# Laboratory results taken from the supplement of paper PMC8728848.
# Some of the results follow.
# B1: Epa1 (Candida glabrata) (protein)
# chain: MGSSHHHHHHSSGLVPRGSHMTSSNDISLASKDPTTFPLGCSPDITTPKKGLSMELYSYDFRKKGSYPCWDAAYLDPNYPRTGYKSHRLLAKVDGVTGNINFYYHATKGCTPQLGHLPASYNYPKPLTMTNFTMLLYGYFRPKVTGFHTFTISADDLLFVNFGAGNAFDCCRRDSSADHFGNYQAYAIWGSKTAKDELTVHLDAGVYYPIRLFYNNREYDGALSFTFKTESNENTVSDFSEYFFSLDDTEEGCPGLISYD
# Key:
# Test in all cases: glycan array binding signal (z-score within array); higher = stronger binding
# Conditions in all cases: glycan notation: IUPAC condensed, linker removed
# [1] = target: Gal(b1-3)GlcNAc(b1-2)Man(a1-3)[Gal(b1-3)GlcNAc(b1-2)Man(a1-6)]Man(b1-4)GlcNAc(b1-4)GlcNAc
# Procedure, shortened: (§1)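 The binding signal is a Z-score computed within each array. Data were drawn from 3228 arrays in the Consortium for Functional Glycomics database, restricted to those with a known protein sequence. Scores were averaged over arrays of the same protein sequence at different concentrations or buffers, and over linkers, and negative values can be taken as non-binding.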
# [2] = target: Gal(b1-3)GlcNAc(b1-2)Man(a1-3)[Gal(b1-3)GlcNAc(b1-2)Man(a1-6)]Man(b1-4)GlcNAc(b1-4)[Fuc(a1-6)]GlcNAc
# Procedure, shortened: as §1
# [3] = target: Gal(b1-3)GlcNAc(b1-2)Man(a1-3)[GlcNAc(b1-4)][Gal(b1-3)GlcNAc(b1-2)Man(a1-6)]Man(b1-4)GlcNAc(b1-4)GlcNAc
# Procedure, shortened: as §1
# [4] = target: Gal(b1-3)GlcNAc(b1-2)[Gal(b1-3)GlcNAc(b1-6)]Man(a1-6)[Gal(b1-3)GlcNAc(b1-2)Man(a1-3)]Man(b1-4)GlcNAc(b1-4)GlcNAc
# Procedure, shortened: as §1
# [5] = target: Gal(b1-3)GlcNAc(b1-3)Gal(b1-3)GlcNAc
# Procedure, shortened: as §1
# [6] = target: Gal(b1-3)GlcNAc(b1-3)Gal(b1-4)Glc
# Procedure, shortened: as §1
# [7] = target: Gal(b1-3)GlcNAc(b1-3)Gal(b1-4)GlcNAc
# Procedure, shortened: as §1
# [8] = target: Gal(b1-3)GlcNAc(b1-3)Gal(b1-4)GlcNAc(b1-2)Man(a1-3)[Gal(b1-3)GlcNAc(b1-3)Gal(b1-4)GlcNAc(b1-2)Man(a1-6)]Man(b1-4)GlcNAc(b1-4)GlcNAc
# Procedure, shortened: as §1
# [9] = target: Gal(b1-3)GlcNAc(b1-3)Gal(b1-4)GlcNAc(b1-2)[Gal(b1-3)GlcNAc(b1-3)Gal(b1-4)GlcNAc(b1-6)]Man(a1-6)[Gal(b1-3)GlcNAc(b1-3)Gal(b1-4)GlcNAc(b1-2)Man(a1-3)]Man(b1-4)GlcNAc(b1-4)[Fuc(a1-6)]GlcNAc
# Procedure, shortened: as §1
# [10] = target: Gal(b1-3)GlcNAc(b1-3)Gal(b1-4)GlcNAc(b1-3)Gal(b1-4)GlcNAc(b1-2)[Gal(b1-3)GlcNAc(b1-3)Gal(b1-4)GlcNAc(b1-3)Gal(b1-4)GlcNAc(b1-6)]Man(a1-6)[Gal(b1-3)GlcNAc(b1-3)Gal(b1-4)GlcNAc(b1-3)Gal(b1-4)GlcNAc(b1-2)Man(a1-3)]Man(b1-4)GlcNAc(b1-4)[Fuc(a1-6)]GlcNAc
# Procedure, shortened: as §1
# [11] = target: Gal(b1-3)GlcNAc(b1-3)Gal(b1-4)GlcNAc(b1-6)[Gal(b1-3)GlcNAc(b1-3)]Gal(b1-4)Glc
# Procedure, shortened: as §1
# [12] = target: Gal(b1-3)GlcNAc(b1-3)Gal(b1-4)[Fuc(a1-3)]GlcNAc
# Procedure, shortened: as §1
# [13] = target: Gal(b1-3)GlcNAc(b1-3)Gal(b1-4)[Fuc(a1-3)]GlcNAc(b1-6)[Gal(b1-3)GlcNAc(b1-3)]Gal(b1-4)Glc
# Procedure, shortened: as §1
# [14] = target: Gal(b1-3)GlcNAc(b1-3)GalNAc
# Procedure, shortened: as §1
# [15] = target: Gal(b1-3)GlcNAc(b1-6)Gal(b1-4)GlcNAc
# Procedure, shortened: as §1
# [16] = target: Gal(b1-3)GlcNAc(b1-6)GalNAc
# Procedure, shortened: as §1
# [17] = target: Gal(b1-3)GlcNAc(b1-6)[Gal(b1-3)]GalNAc
# Procedure, shortened: as §1
# Gal(b1-3)GlcNAc6S = target: Gal(b1-3)GlcNAc6S
# Procedure, shortened: as §1
# [18] = target: Gal(b1-3)[Fuc(a1-4)]GlcNAc
# Procedure, shortened: as §1
# [19] = target: Gal(b1-3)[Fuc(a1-4)]GlcNAc(b1-2)Man
# Procedure, shortened: as §1
# [20] = target: Gal(b1-3)[Fuc(a1-4)]GlcNAc(b1-2)Man(a1-3)[Gal(b1-3)[Fuc(a1-4)]GlcNAc(b1-2)Man(a1-6)]Man(b1-4)GlcNAc(b1-4)[Fuc(a1-6)]GlcNAc
# Procedure, shortened: as §1
# [21] = target: Gal(b1-3)[Fuc(a1-4)]GlcNAc(b1-3)Gal(b1-3)[Fuc(a1-4)]GlcNAc
# Procedure, shortened: as §1
# [22] = target: Gal(b1-3)[Fuc(a1-4)]GlcNAc(b1-3)Gal(b1-4)[Fuc(a1-3)]GlcNAc
# Procedure, shortened: as §1
# [23] = target: Gal(b1-3)[Fuc(a1-4)]GlcNAc(b1-6)GalNAc
# Procedure, shortened: as §1
# [24] = target: Gal(b1-3)[GlcNAc(b1-6)]GalNAc
# Procedure, shortened: as §1
# [25] = target: Gal(b1-3)[Neu5Ac(a2-6)]GalNAc
# Procedure, shortened: as §1
# [26] = target: Gal(b1-3)[Neu5Ac(a2-6)]GlcNAc(b1-4)Gal(b1-4)Glc
# Procedure, shortened: as §1
# [27] = target: Gal(b1-3)[Neu5Ac(b2-6)]GalNAc
# Procedure, shortened: as §1
# Gal(b1-4)Gal = target: Gal(b1-4)Gal
# Procedure, shortened: as §1
# [28] = target: Gal(b1-4)GalNAc(a1-3)[Fuc(a1-2)]Gal(b1-4)GlcNAc
# Procedure, shortened: as §1
# [29] = target: Gal(b1-4)GalNAc(b1-3)[Fuc(a1-2)]Gal(b1-4)GlcNAc
# Procedure, shortened: as §1
# Gal(b1-4)Glc = target: Gal(b1-4)Glc
# Procedure, shortened: as §1
# Gal(b1-4)Glc6S = target: Gal(b1-4)Glc6S
# Procedure, shortened: as §1
# Gal(b1-4)GlcNAc = target: Gal(b1-4)GlcNAc
# Procedure, shortened: as §1
# [30] = target: Gal(b1-4)GlcNAc(a1-6)Gal(b1-4)GlcNAc
# Procedure, shortened: as §1
# Gal(b1-4)GlcNAc(b1-2)Man = target: Gal(b1-4)GlcNAc(b1-2)Man
# Procedure, shortened: as §1
# [31] = target: Gal(b1-4)GlcNAc(b1-2)Man(a1-3)Man(b1-4)GlcNAc(b1-4)GlcNAc
# Procedure, shortened: as §1
binder,measurement,setting,value
B1,glycan array binding signal (z-score),[1],0.9
same,glycan array binding signal (z-score),[2],0.599
same,glycan array binding signal (z-score),[3],0.171
same,glycan array binding signal (z-score),[4],0.281
same,glycan array binding signal (z-score),[5],-0.175
same,glycan array binding signal (z-score),[6],-0.323
same,glycan array binding signal (z-score),[7],-0.269
same,glycan array binding signal (z-score),[8],-0.271
same,glycan array binding signal (z-score),[9],0.065
same,glycan array binding signal (z-score),[10],0.143
same,glycan array binding signal (z-score),[11],0.489
same,glycan array binding signal (z-score),[12],-0.238
same,glycan array binding signal (z-score),[13],0.037
same,glycan array binding signal (z-score),[14],-0.22
same,glycan array binding signal (z-score),[15],1.69
same,glycan array binding signal (z-score),[16],-0.234
same,glycan array binding signal (z-score),[17],1.48
same,glycan array binding signal (z-score),Gal(b1-3)GlcNAc6S,0.176
same,glycan array binding signal (z-score),[18],-0.284
same,glycan array binding signal (z-score),[19],-0.247
same,glycan array binding signal (z-score),[20],-0.159
same,glycan array binding signal (z-score),[21],-0.296
same,glycan array binding signal (z-score),[22],-0.292
same,glycan array binding signal (z-score),[23],-0.199
same,glycan array binding signal (z-score),[24],2.17
same,glycan array binding signal (z-score),[25],4.22
same,glycan array binding signal (z-score),[26],-0.213
same,glycan array binding signal (z-score),[27],0.447
same,glycan array binding signal (z-score),Gal(b1-4)Gal,-0.163
same,glycan array binding signal (z-score),[28],-0.197
same,glycan array binding signal (z-score),[29],0.087
same,glycan array binding signal (z-score),Gal(b1-4)Glc,0.075
same,glycan array binding signal (z-score),Gal(b1-4)Glc6S,0.304
same,glycan array binding signal (z-score),Gal(b1-4)GlcNAc,0.542
same,glycan array binding signal (z-score),[30],2.77
same,glycan array binding signal (z-score),Gal(b1-4)GlcNAc(b1-2)Man,-0.267
same,glycan array binding signal (z-score),[31],-0.119
